In all, about 39,000 compounds went through this assay and about 220 (0.56%) showed activity. This is one part of the list.
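Further: static incubation at 37 °C against the wild-type strain, values averaged over two biological replicates.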

For the experiment, the system named is Escherichia coli K-12 BW25113. In words: relative growth (OD600 normalised to plate interquartile mean) (fraction); higher = less growth inhibition, active = 0.2 or less. The following applies: 50 µM; LB; incubation time: overnight (16-24 h).
Consider `COc1ccc(CN(C)C[C@@H]2OCCCC[C@@H](C)Oc3ccc(NS(=O)(=O)c4ccc(Cl)cc4)cc3C(=O)N([C@@H](C)CO)C[C@@H]2C)cc1`, for which the relative growth was inactive: 0.985.

Consider `Cc1cccn2c(=O)c(-c3nnn[n-]3)cnc12.[K+]`, for which the relative growth is inactive: 1.05.

On to `C[C@H]1CN([C@@H](C)CO)C(=O)c2cc(C#CC3CCCCC3)cnc2O[C@@H]1CN(C)C(=O)Cc1ccccn1`, for which the relative growth was inactive: 0.979.

For the compound `C=CC(=O)Nc1ccc([C@@H](CCc2ccc(OC)c(OC)c2)OC(=O)[C@@H]2CCCCN2C(=O)C(=O)C(C)(C)CC)cc1`, the relative growth was inactive: 1.04.

Turning to `C[C@H](CO)N1C[C@H](C)[C@@H](CN(C)CC2CCCCC2)OCc2ccccc2-c2c(n(C)c3ccccc23)C1=O`, the relative growth was inactive: 0.952.

For `COc1ccc2c3c([nH]c2c1)[C@H](CO)N(C[C@]13CN(C1)C(=O)Cc1cccnc1)S(=O)(=O)c1ccc(cc1)C`, the relative growth was inactive: 0.987.

In the case of `Cc1noc(C)c1S(=O)(=O)N(C)C[C@H]1Oc2ccc(NC(=O)CCN3CCOCC3)cc2CC(=O)N([C@@H](C)CO)C[C@H]1C`, the relative growth is inactive: 1.01.

For the compound `C/N=C1/S[C@@H]2CS(=O)(=O)C[C@@H]2N1C`, the relative growth was inactive: 1.02.

For the compound `Cc1ccccc1S(=O)(=O)N1C[C@@H](O)COC[C@H]2O[C@@H](CC(=O)N3CCN(C)CC3)CC[C@@H]21`, the relative growth was inactive: 0.985.

Take `COc1ccc(S(=O)(=O)N(C)C[C@@H]2Oc3ccc(NS(C)(=O)=O)cc3C(=O)N([C@@H](C)CO)C[C@@H]2C)cc1`: the relative growth is inactive: 1.

With `C[C@H]1CN([C@@H](C)CO)C(=O)c2cccc(NC(=O)CCCCCC(=O)Nc3ccccc3N)c2O[C@@H]1CN(C)C(=O)Nc1cccc2ccccc12`, the relative growth was inactive: 0.992.

Regarding `COc1cccc(-c2ccc3c(c2)O[C@H](CN(C)Cc2cncnc2)[C@@H](C)CN([C@@H](C)CO)S3(=O)=O)c1`, the relative growth is inactive: 1.01.

As for `O=C(C[C@@H]1CC[C@@H]2[C@H](COC[C@@H](O)CN2S(=O)(=O)c2cccc(Cl)c2)O1)N1CCOCC1`, the relative growth was inactive: 1.01.

`CC1(C)OC(=O)C2(C(=O)O1)[C@@H](c1ccc(-c3cccc(-c4ccc(C(=O)O)cc4)c3)cc1)CC(=O)C[C@H]2c1ccccc1`: the relative growth is inactive: 0.943.

Regarding `C[C@H](CO)N1C[C@H](C)[C@@H](CN(C)C(=O)Nc2ccc(N3CCCCC3)cc2)OCc2cnnn2CCCC1=O`, the relative growth was inactive: 0.841.

With `C[C@H](CO)N1C[C@H](C)[C@H](CN(C)C(=O)c2ccc(N3CCN(C)CC3)cc2)OCc2cn(nn2)CCCC1=O`, the relative growth is inactive: 1.

`C[C@H]1CCCCO[C@H](CN(C)Cc2ccc3c(c2)OCO3)[C@@H](C)CN([C@@H](C)CO)C(=O)c2cc(NC(=O)Nc3ccc(F)cc3)ccc2O1`: the relative growth is inactive: 0.995.

With `COc1ccc(S(=O)(=O)Nc2cccc3c2O[C@H](CN(C)Cc2ccncc2)[C@H](C)CN([C@@H](C)CO)C3=O)cc1`, the relative growth was inactive: 1.03.

With `C[C@H]1O[C@@H](OC(=O)[C@]23CCC(C)(C)C[C@H]2C2=CC[C@H]4[C@@]5(C)CC[C@H](O[C@@H]6O[C@H](C(=O)O)[C@@H](O)[C@H](O[C@@H]7OC[C@@H](O)[C@H](O)[C@H]7O)[C@H]6O[C@@H]6O[C@H](CO)[C@H](O)[C@H](O)[C@H]6O)[C@@](C)(C=O)[C@@H]5CC[C@@]4(C)[C@]2(C)C[C@H]3O)[C@H](O[C@H]2O[C@@H](CO)[C@@H](O)[C@@H](O)[C@@H]2O)[C@@H](O)[C@H]1O[C@@H]1O[C@H](C)[C@@H](O[C@H]2OC[C@@H](O)[C@@H](O)[C@@H]2O)[C@H](O)[C@@H]1O`, the relative growth is inactive: 0.992.

Regarding `COc1ccc(COC[C@@H](C)N2C[C@H](C)[C@H](CN(C)S(=O)(=O)c3ccc(Cl)cc3)Oc3ccc(NC(=O)NC(C)C)cc3C2=O)cc1`, the relative growth is inactive: 1.02.

On to `C[C@H](CO)N1C[C@H](C)[C@H](CN(C)C(=O)Nc2cccc3ccccc23)Oc2ccc(NC(=O)Nc3ccc4c(c3)OCO4)cc2C1=O`, for which the relative growth is inactive: 1.01.

As for `COc1ccc(-c2oc3c(CC=C(C)C)c(OC4OC(CO)C(O)C(O)C4O)cc(O)c3c(=O)c2OC2OC(C)C(O)C(O)C2O)cc1` (stereo not drawn), the relative growth is inactive: 1.08.

In the case of `CN(C)CCCSC(=N)N`, the relative growth was inactive: 1.02.

Regarding `C[C@@H]1CN([C@@H](C)CO)C(=O)c2cc(NC(=O)Cn3cnnn3)ccc2O[C@H]1CN(C)C(=O)Nc1ccc(F)cc1`, the relative growth was inactive: 0.966.

Take `C[C@@H]1CN([C@@H](C)CO)C(=O)c2cc(NC(=O)CCN3CCOCC3)ccc2O[C@H]1CN(C)S(=O)(=O)c1ccccc1`: the relative growth was inactive: 1.01.

Regarding `C[C@@H]1CN([C@@H](C)CO)C(=O)c2cc(NC(=O)NC3CCCCC3)ccc2O[C@@H]1CN(C)Cc1ccc(Cl)c(Cl)c1`, the relative growth is inactive: 1.01.

Consider `C[C@@H](C(=O)O)n1ncccc1=O`, for which the relative growth was inactive: 1.02.

Take `CCNC(=O)CC[C@@H](N)C(=O)O`: the relative growth was inactive: 1.02.

For `C[C@H](CO)N1C[C@H](C)[C@H](CN(C)Cc2ccc(Cl)c(Cl)c2)Oc2ccc(NC(=O)Nc3ccccc3)cc2CC1=O`, the relative growth is inactive: 1.

Consider `C[C@@H]1CN([C@@H](C)CO)S(=O)(=O)c2ccc(C#CCC3CCCC3)cc2O[C@@H]1CN(C)C(=O)c1cnccn1`, for which the relative growth is inactive: 1.04.

As for `COc1ccc(CN(C)C[C@@H]2OCCCC[C@@H](C)Oc3ccc(NC(=O)Cc4ccccc4)cc3C(=O)N([C@@H](C)CO)C[C@H]2C)cc1`, the relative growth was inactive: 0.998.

For the compound `NCCNCCNCCN`, the relative growth is inactive: 1.01.

In the case of `COc1ccc(C#Cc2ccc([C@@H]3[C@H](CO)N4CCCCN(S(=O)(=O)c5cn(C)cn5)C[C@@H]34)cc2)cc1`, the relative growth is inactive: 0.944.

In the case of `CC(C)CSc1ncnc2scc(-c3ccccc3)c12`, the relative growth is inactive: 0.989.

`C[C@H](CO)N1C[C@H](C)[C@H](CN(C)C(=O)Nc2ccc3c(c2)OCCO3)OCc2cn(nn2)CCCC1=O`: the relative growth was inactive: 1.02.

Turning to `O=C(Cn1cnnn1)NS(=O)(=O)c1ccccc1`, the relative growth is inactive: 0.973.

Consider `C[C@H]1CCCCO[C@H](CN(C)CC2CCCCC2)[C@@H](C)CN([C@@H](C)CO)C(=O)c2cc(NC(=O)c3ccccc3)ccc2O1`, for which the relative growth is inactive: 1.01.

`C[C@@H]1CN([C@@H](C)CO)C(=O)Cc2cc(NC(=O)NC3CCCCC3)ccc2O[C@H]1CN(C)Cc1ccc(Cl)c(Cl)c1`: the relative growth was inactive: 1.

Source of the values: the supplement of paper PMC9446081.
